# From PubChem BioAssay AID488969 (Vanderbilt High Throughput Screening Facility, 2010)
# Whole data set: some 110,000 compounds, median “z-score” near -0.1, cut for the highest 2% near 2. The list shows a part of the results. The source made the active and inactive calls.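 The calls were made as follows: active = z-score in the third read window above 3 or below -3; inactive = the rest.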
# Target: Metabotropic glutamate receptor 8 (Rattus norvegicus) (UniProt P70579)
# Experiment: rat mGluR8 modulators via GIRK flux, primary screen, cell-based, thallium flux, HTS (AID 488969)
# Settings: HEK293 rat mGluR8, GIRK (G protein-gated inwardly rectifying potassium channel) thallium flux, FluoZin2; at 10 µM; stronger effect = higher value; submaximal glutamate (EC20) added with thallium
# Sequence of UniProt P70579 (P70579 whole entry, looked up): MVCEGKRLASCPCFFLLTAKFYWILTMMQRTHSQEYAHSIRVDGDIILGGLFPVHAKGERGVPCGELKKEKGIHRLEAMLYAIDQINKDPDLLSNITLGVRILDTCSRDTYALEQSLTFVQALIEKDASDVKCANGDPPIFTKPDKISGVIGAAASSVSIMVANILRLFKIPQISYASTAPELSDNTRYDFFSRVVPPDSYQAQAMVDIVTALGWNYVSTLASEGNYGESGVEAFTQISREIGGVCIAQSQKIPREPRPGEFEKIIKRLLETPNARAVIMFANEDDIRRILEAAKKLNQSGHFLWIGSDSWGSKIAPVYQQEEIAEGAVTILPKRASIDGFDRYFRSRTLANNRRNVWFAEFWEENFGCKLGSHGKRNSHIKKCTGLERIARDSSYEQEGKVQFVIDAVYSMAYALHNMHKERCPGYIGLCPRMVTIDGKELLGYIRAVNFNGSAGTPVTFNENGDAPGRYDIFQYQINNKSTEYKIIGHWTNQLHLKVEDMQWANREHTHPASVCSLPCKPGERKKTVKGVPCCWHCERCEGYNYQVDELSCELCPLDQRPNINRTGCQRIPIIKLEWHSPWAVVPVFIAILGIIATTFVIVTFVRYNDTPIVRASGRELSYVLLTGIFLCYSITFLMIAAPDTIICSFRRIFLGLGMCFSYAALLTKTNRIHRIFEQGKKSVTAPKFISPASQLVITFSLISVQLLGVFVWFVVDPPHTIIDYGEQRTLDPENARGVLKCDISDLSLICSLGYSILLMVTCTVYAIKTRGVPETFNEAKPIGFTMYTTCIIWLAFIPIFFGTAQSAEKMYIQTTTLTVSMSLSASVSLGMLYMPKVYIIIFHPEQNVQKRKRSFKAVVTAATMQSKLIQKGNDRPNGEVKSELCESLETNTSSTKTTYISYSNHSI
row,Compound,z-score
1,Cc1cc(C(F)(F)F)nn1CC(=O)N1CCCC1,-0.211
2,O=C(Nc1nnc(CC(=O)N2CCOCC2)s1)c1cccs1,0.333
3,CCN(CC)c1ccc(NC(=O)c2cccnc2)cc1,-0.663
4,O=C(/C=C/c1ccccc1)NC(NC(=S)Nc1cccc(O)c1)C(Cl)(Cl)Cl (stereo not given),2.09
5,COc1ccc(/C=C/C(=O)c2c(O)cc(C)oc2=O)c(OC)c1,-0.284
6,CC(C)c1ccccc1OCCNS(C)(=O)=O,-0.482
7,CC(C)CN(CC(C)C)C(=S)NC1CCCCC1,-0.249
8,COc1cc(OC)c(OC)cc1CN(C)C(c1ccccc1)c1nnnn1-c1ccccc1C (stereo not given),0.0196
9,CC1SC(C)C(=O)N(CC(=O)Nc2ccc3c(c2)OCO3)C1=O (stereo not given),-0.17
10,Nc1ccc(S(=O)(=O)N2CCCC2)cc1,-0.115
11,Cc1c(Cc2ccccc2)sc(NC(=O)c2ccco2)c1C(N)=O,-1.42
12,COc1ccc(C(=O)NN(C)c2nc(-c3ccccc3)nnc2C(F)(F)F)cc1,0.451
13,Cc1cc(Nc2ccc(N3CCC(C)CC3)cc2)n2ncnc2n1,-0.195
14,CC1=C(C(=O)N(C)C)C(c2cccs2)NC(=O)N1 (stereo not given),0.0593
15,O=C(Cc1ccc(Cl)cc1)N1CCN(C(=O)c2ccco2)CC1,-1
16,O/N=C(/Cc1ccccn1)c1ccccc1,-0.199
17,CC1(C)CC(=O)C2=C(C1)OC(N)=C(C#N)C2c1cn(-c2ccccc2)nc1-c1ccccc1 (stereo not given),-0.434
18,O=C(Nc1nc(=O)c2ccccc2s1)c1ccccc1,active: 14.9
19,COc1ccc(C(=O)NNC(=O)CN2CCC(n3nnc4cc(C)ccc43)CC2)cc1,0.234
20,Nc1ccc(CC2SC(=O)NC2=O)cc1 (stereo not given),0.222
21,CCSc1ncnc2c1sc1nc(-c3ccco3)c3c(c12)CC(C)(C)OC3,-0.162
22,CCCCCn1c(NCc2ccco2)nc2ccccc21,0.413

row,Compound,z-score
1,O=[N+]([O-])c1ccc(O)c(/C=N/Nc2ccccn2)c1,-0.118
2,O=C(Nc1cccc(Br)c1)c1ccn[nH]1,-0.674
3,CCCCC(CC)C(=O)NCc1ccc(F)cc1 (stereo not given),-1.43
4,CCOC(=O)CCCCC(=O)c1[nH]c(=O)[nH]c1CSCCO,0.565
5,CCOC(=O)c1[nH]c2ccccc2c1N=CN(CC)CC,-0.194
6,CCC(C)c1ccc(NC(=O)COc2c(F)c(F)c(C(F)(F)F)c(F)c2F)cc1 (stereo not given),-0.142
7,COc1ccc(N(CC(=O)Nc2ccc(F)c(Cl)c2)S(=O)(=O)c2c(C)noc2C)cc1,-0.0121
8,CCOC(=O)Nc1ccc(S(=O)(=O)Nc2cc(C)on2)cc1,-0.269
9,O=C(Oc1ccc(Cl)cc1)c1ccc(COC(=O)c2cnccn2)cc1,0.0127
10,CCOC(=O)C(/C(N)=N/C(=O)Nc1ccccc1)=C(\C)O,-0.242
11,Cc1ccccc1-n1cnc2cc(NCc3cccs3)ccc21,-0.526
12,CCOC(=O)c1c(-c2ccccc2)c(C(C)=O)c(=O)n(C)c1C,-0.57
13,CC(C)(C)OC(=O)COc1cc(OCC(=O)OC(C)(C)C)c2c(=O)cc(-c3ccccc3)oc2c1,-0.331
14,O=C(COC(=O)c1cccc(S(=O)(=O)N2CCc3ccccc32)c1)Nc1ccc(Cl)cn1,-0.0888
15,Brc1ccc(/C=N/N2CCN(C3c4ccccc4-c4ccccc43)CC2)s1,-0.108
16,O=c1c2ccccc2sc2ccc(Cl)cc12,-0.316
17,Cc1ccc(NC(=O)c2cccc(OCc3c(C)noc3C)c2)cc1,-1.3
18,Cc1cc(C)c(S(=O)(=O)NCC2CCC(C(=O)NCc3ccc4c(c3)OCO4)CC2)c(C)c1 (stereo not given),-0.0319
19,COc1ccc(Oc2nc3ccccc3n(C)c2=O)cc1,-0.0152
20,Cc1cccc(OCC(O)CNC(=O)c2ccccc2C(=O)O)c1 (stereo not given),-0.291
21,COC(=O)NC1(C(F)(F)F)C(=O)NC(C)=C1C(=O)OC (stereo not given),0.302
22,CCN(CC)S(=O)(=O)c1ccc2oc(C(=O)NCCCN3CCOCC3)c(C)c2c1,-0.251

row,Compound,z-score
1,O=C(NCCc1ccc2c(c1)OCCO2)c1cc(F)cc(F)c1,0.0341
2,CC(=O)c1ccccc1NS(=O)(=O)c1c(C)nn(-c2ccccc2)c1C,-0.405
3,O=C(CN1CC(=O)Oc2ccccc21)OCC(=O)c1ccc(Br)cc1,-0.236
4,COCCn1c(SCC(=O)Nc2cccc(OC)c2)nnc1-c1ccc(Cl)cc1,-0.443
5,CCOC(=O)C1C(=O)NCC1c1ccccc1 (stereo not given),-0.0823
6,CC(=O)N(c1c(C)n(C)n(-c2ccccc2)c1=O)C1(C(=O)NC2CCCCC2)CCCCC1,0.00808
7,O=C(CCSc1nc(-c2ccco2)cc(C(F)(F)F)n1)NCC1CCCO1 (stereo not given),0.272
8,Cc1cc(NC(=O)CSc2nc3c(sc4ccccc43)c(=O)n2CCCN2CCOCC2)n[nH]1,-0.235
9,CCOC(=O)c1cc(-c2ccccc2)n(CCC(=O)N2CCN(c3ccccn3)CC2)c1C,-0.389
10,CCc1c(C(=O)NCc2ccccc2Cl)[nH]c(C)c1C(C)=O,-0.281
11,O=C(CSc1nnc(CN2CCOCC2)n1-c1ccc(Cl)cc1)Nc1ccc2c(c1)OCO2,-0.298
12,Cc1nn(CCc2n[nH]c(=S)n2-c2cccc(Cl)c2)c(C)c1[N+](=O)[O-],-0.293
13,CC(C)NC(=O)CSc1nnc2sc3ccccc3n12,0.284
14,O=C(NC1CCCCC1)c1cccs1,0.0843
15,CCOC(=O)CSCC(=O)Nc1c(C(=O)C2CC2)oc2ccccc12,-0.266
16,Cc1cc(C)n2nc(S(=O)(=O)N(C)c3ccccc3)nc2n1,0.215
17,Cc1cc(NC(=O)CCC(=O)N(Cc2ccco2)C(C(=O)NC2CCCC2)c2ccccc2C)no1 (stereo not given),-0.43
18,O=C(Nc1nnc(C2CCCO2)s1)c1ccc(Br)cc1 (stereo not given),0.12
19,Cc1ccc(-c2cc(C(F)(F)F)c(C#N)c(SCCC#N)n2)o1,0.109
20,CCN1CCCC1CN(Cc1cc2ccc(C)cc2[nH]c1=O)C(=S)Nc1cccc(OC)c1 (stereo not given),0.197
21,CCO/N=C(\C)c1c(O)c(CC)c(-c2ccccc2)n(-c2ccccc2)c1=O,-0.255
22,CCOC(=O)CNC(=O)CCNS(=O)(=O)c1ccc2c(c1)c(=O)n(C)c(=O)n2C,0.282

row,Compound,z-score
1,CCOC(=O)C1=C(C)OC(N)=C(C#N)C1c1cc(F)ccc1F (stereo not given),-2.09
2,CCOC(=O)N(NC(=O)C(O)(c1ccccc1)c1ccccc1)c1ccccc1,-0.387
3,N#C/C(=C(/O)CN1CCN(c2ccccc2F)CC1)c1nc(-c2ccccc2)cs1,-0.12
4,CCOCC(=O)Nc1nnc(C2CCCCC2)s1,0.0573
5,CN(C)C(=O)c1c(NC(=O)c2ccco2)sc2c1CCCCC2,0.93
6,CCOC(=O)c1[nH]c2cc(OC)c(OC)cc2c1N,-0.0417
7,CC(=O)c1c(N2CCN(Cc3ccc4c(c3)OCO4)CC2)nc(=S)n(-c2ccccc2)c1C,0.042
8,CCOc1ccccc1Oc1coc2cc(OC(=O)c3ccco3)ccc2c1=O,0.327
9,O=S(=O)(N/N=C1/CC(c2ccccc2)Oc2ccccc21)c1ccc(Br)cc1 (stereo not given),-0.0137
10,COc1ccc(/C=C/C(=O)C(C(N)=O)=C2SCCS2)cc1,-0.134
11,COc1ccc(CNC(=O)C(c2cccs2)N(Cc2ccco2)C(=O)Cc2cccs2)cc1 (stereo not given),-0.565
12,CCN(c1ccccc1)S(=O)(=O)c1ccc(Cl)c(NC(=O)CSc2nncn2C)c1,-0.151
13,COC(=O)c1cccc(NC(=O)CSc2nc(C)cc(=O)[nH]2)c1,-0.438
14,O=C(c1ccccc1F)N1CCN(Cc2ccccc2F)CC1,-0.179
15,O=c1c2ccccc2nnn1Cc1nnc(-c2ccccc2Br)o1,0.68
16,CCCC(=O)Nc1ccc(Sc2ccc([N+](=O)[O-])cc2)cc1,0.077
17,C=CCn1c(=NC(=O)c2ccco2)sc2cc(C(=O)OC)ccc21,0.103
18,CCOC(=O)c1cc2c(ccn2C)n1CC(=O)N(Cc1ccccc1)c1ccccc1,1.36
19,O=C(O)c1cccc(N/N=C/c2cc(Br)cc(Br)c2O)c1,-0.753
20,Cc1cccnc1NC(=O)Nc1cccs1,-0.232
21,O=C1Nc2c(c(=O)[nH]c(=O)n2-c2ccccc2)C(C(F)(F)F)(C(F)(F)F)N1,-0.42
22,COc1ccc(-c2cc(C(F)(F)F)n3nc(C(=O)N4CCCCC4)cc3n2)cc1OC,-0.217

row,Compound,z-score
1,CCOC(=O)N1CCN(CC(O)COCc2ccc(Cl)cc2)CC1 (stereo not given),-0.1
2,Cc1ccc(C(=O)CSc2nnc(CNc3ccc(C)cc3C)o2)cc1,0.0375
3,O=C(CN1CCOCC1)Nc1ccccc1NC(=O)C1CCN(c2ncccn2)CC1,-0.305
4,CC(C)CC(c1nnnn1Cc1ccco1)N1CCN(C2CCCC2)CC1 (stereo not given),-0.0906
5,O=C(NCc1ccco1)c1ccc(Cn2c(=O)c3sccc3n(Cc3cccc(F)c3)c2=O)cc1,-0.444
6,Cc1c(Cl)c(C(=O)NC2C3CC4CC(C3)CC2C4)nn1C (stereo not given),0.0524
7,CCOc1ccc(-c2csc(Cn3c(CN4CCN(C)CC4)nc4ccccc4c3=O)n2)cc1,-0.838
8,O=C(c1cccnc1)N1CCN(Cc2ccccc2Br)CC1,0.625
9,Cn1c(C(=O)NC2CCCCCC2)cc2c(=O)n(C)c3ccccc3c21,-1.23
10,CCOC(=O)C(C)Oc1nc(Oc2ccccc2)nc(N(C)C)n1 (stereo not given),0.243
11,Cc1ccc(CNS(=O)(=O)N(C)C)cc1,-0.481
12,O=C(NC(=S)NCC1CCCO1)c1ccc([N+](=O)[O-])cc1 (stereo not given),-0.067
13,Cc1nc(NS(=O)(=O)c2ccccc2)sc1NC(=O)OCCN(C)C,0.0129
14,CCOC(=O)N1CCC(Nc2c(NCCCN(CC)Cc3ccccc3)c(=O)c2=O)CC1,-1.26
15,Cc1ccccc1Cn1cc(NC(=O)CSc2nc3c(c(C(F)(F)F)n2)CCc2ccccc2-3)cn1,-0.789
16,Cc1oc(-c2ccccc2Cl)nc1Cn1cccc1C1=NC(c2ccccc2)CO1 (stereo not given),0.899
17,Cc1ccc(S(=O)(=O)N2CCN(Cc3nc4ccccc4[nH]3)CC2)cc1C,-0.049
18,CC1(C)OC(=O)C(=CNc2ncccn2)C(=O)O1,-0.0143
19,Cc1cccc(C(=O)n2c(=S)nc3ccccn32)c1,-0.0542
20,Cc1cccc(-n2ncc3c(NCCCn4ccnc4)ncnc32)c1,-0.339
21,Cc1ccc(NC(=O)CSc2ccc3nnc(CCNC(=O)c4ccccc4)n3n2)c(C)c1,0.618
22,COc1ccccc1NC(CC(=O)c1ccccc1)C(=O)OCC(=O)c1ccc(C)c(C)c1 (stereo not given),0.228
